IC50 data for 30 compounds are collected here from patent publication US11685745B2, “Substituted benzoxazole and benzofuran compounds as PDE7 inhibitors” (Dart NeuroScience, LLC, priority 2017, dated 2023).

What is called IC50 is the midpoint of a concentration-inhibition curve.

For this experiment, the target named is N-terminal truncated recombinant human PDE7B enzyme (Homo sapiens (Human), UniProt Q9NP56). The experiment is described as follows: biochemical.
For the compound `CO[C@@H]1CCCN(C(=O)c2nc3cc(Cl)c4c(c3o2)C2(CCCCC2)NC(=O)N4)C1` [Example 200, 5-Chloro-2-[(3R)-3-methoxypiperidine-1-carbonyl]-7,8-dihydro-6H-spiro[[1,3]oxazolo[5,4-f]quinazoline-9,1′-cyclohexane]-7-one], the IC50 fell in the range of 10 to 100 nM.

For the compound `O=C1Nc2c(Cl)cc3nc(C(=O)NC4CCCOC4)oc3c2C2(CCCCC2)N1` (stereo not drawn) [Example 201, 5-Chloro-N-(oxan-3-yl)-7-oxo-7,8-dihydro-6H-spiro[[1,3]oxazolo[5,4-f]quinazoline-9,1′-cyclohexane]-2-carboxamide], the IC50 is 10 to 100 nM.

`CO[C@H]1CCN(C(=O)c2nc3cc(Cl)c4c(c3o2)C2(CCCCC2)NC(=O)N4)C1` [Example 202, 5-Chloro-2-[(3S)-3-methoxypyrrolidine-1-carbonyl]-7,8-dihydro-6H-spiro[[1,3]oxazolo[5,4-f]quinazoline-9,1′-cyclohexane]-7-one]: the IC50 lay within 10 to 100 nM.

For the compound `COC[C@@H]1CCN(C(=O)c2nc3cc(Cl)c4c(c3o2)C2(CCCCC2)NC(=O)N4)C1` [Example 203, 5-Chloro-2-[(3R)-3-(methoxymethyl)pyrrolidine-1-carbonyl]-7,8-dihydro-6H-spiro[[1,3]oxazolo[5,4-f]quinazoline-9,1′-cyclohexane]-7-one], the half-maximal inhibitory concentration (IC50) lay within 10 to 100 nM.

Consider `COC[C@H]1CCN(C(=O)c2nc3cc(Cl)c4c(c3o2)C2(CCCCC2)NC(=O)N4)C1` [Example 204, 5-Chloro-2-[(3S)-3-(methoxymethyl)pyrrolidine-1-carbonyl]-7,8-dihydro-6H-spiro[[1,3]oxazolo[5,4-f]quinazoline-9,1′-cyclohexane]-7-one], for which the IC50 fell in the range of 10 to 100 nM.

Turning to `O=C1Nc2c(Cl)cc3nc(C(=O)NCCOC(F)(F)F)oc3c2C2(CCCCC2)N1` [Example 205, 5-Chloro-7-oxo-N-[2-(trifluoromethoxy)ethyl]-7,8-dihydro-6H-spiro[[1,3]oxazolo[5,4-f]quinazoline-9,1′-cyclohexane]-2-carboxamide], the IC50 was 10 to 100 nM.

As for `CO[C@@H]1CCN(C(=O)c2nc3cc(Cl)c4c(c3o2)C2(CCCCC2)NC(=O)N4)C1` [Example 206, 5-Chloro-2-[(3R)-3-methoxypyrrolidine-1-carbonyl]-7,8-dihydro-6H-spiro[[1,3]oxazolo[5,4-f]quinazoline-9,1′-cyclohexane]-7-one], the IC50 is 10 to 100 nM.

Consider `CCN1CCN(C(=O)c2nc3cc(Cl)c4c(c3o2)C2(CCCCC2)NC(=O)N4)CC1` [Example 207, 5-Chloro-2-(4-ethylpiperazine-1-carbonyl)-7,8-dihydro-6H-spiro[[1,3]oxazolo[5,4-f]quinazoline-9,1′-cyclohexane]-7-one], for which the IC50 is 10 to 100 nM.

Consider `CC(C)N1CCN(C(=O)c2nc3cc(Cl)c4c(c3o2)C2(CCCCC2)NC(=O)N4)CC1` [Example 208, 5-Chloro-2-[4-(propan-2-yl)piperazine-1-carbonyl]-7,8-dihydro-6H-spiro[[1,3]oxazolo[5,4-f]quinazoline-9,1′-cyclohexane]-7-one], for which the IC50 lay within 10 to 100 nM.

Regarding `O=C1Nc2c(Cl)cc3nc(C(=O)N4CCN(CC(F)F)CC4)oc3c2C2(CCCCC2)N1` [Example 209, 5-Chloro-2-[4-(2,2-difluoroethyl)piperazine-1-carbonyl]-7,8-dihydro-6H-spiro[[1,3]oxazolo[5,4-f]quinazoline-9,1′-cyclohexane]-7-one], the IC50 fell in the range of 10 to 100 nM.

Take `O=C1Nc2c(Cl)cc3nc(C(=O)N4CCN5CCC[C@H]5C4)oc3c2C2(CCCCC2)N1` [Example 210, 2-[(8aS)-Octahydropyrrolo[1,2-a]piperazine-2-carbonyl]-5-chloro-7,8-dihydro-6H-spiro[[1,3]oxazolo[5,4-f]quinazoline-9,1′-cyclohexane]-7-one]: the IC50 is 10 to 100 nM.

On to `O=C1Nc2c(Cl)cc3nc(C(=O)N4CCNCC4)oc3c2C2(CCCCC2)N1` [Example 211, 5-Chloro-2-(piperazine-1-carbonyl)-7,8-dihydro-6H-spiro[[1,3]oxazolo[5,4-f]quinazoline-9,1′-cyclohexane]-7-one], for which the IC50 fell in the range of 10 to 100 nM.

Turning to `O=C1Nc2c(Cl)cc3nc(C(=O)NC[C@H]4CCOC4)oc3c2C2(CCCCC2)N1` [Example 212, 5-Chloro-7-oxo-N-[(3R)-oxolan-3-ylmethyl]-7,8-dihydro-6H-spiro[[1,3]oxazolo[5,4-f]quinazoline-9,1′-cyclohexane]-2-carboxamide], the IC50 fell in the range of 10 to 100 nM.

As to `O=C1Nc2c(Cl)cc3nc(C(=O)N4CCN(CCF)CC4)oc3c2C2(CCCCC2)N1` [Example 213, 5-Chloro-2-[4-(2-fluoroethyl)piperazine-1-carbonyl]-7,8-dihydro-6H-spiro[[1,3]oxazolo[5,4-f]quinazoline-9,1′-cyclohexane]-7-one], the IC50 is 10 to 100 nM.

Consider `O=C1Nc2c(Cl)cc3nc(C(=O)NC4CCCC4(F)F)oc3c2C2(CCCCC2)N1` (stereo not drawn) [Example 214, 5-Chloro-N-(2,2-difluorocyclopentyl)-7-oxo-7,8-dihydro-6H-spiro[[1,3]oxazolo[5,4-f]quinazoline-9,1′-cyclohexane]-2-carboxamide], for which the IC50 was in the range of 100 to 1000 nM.

In the case of `COCC1(NC(=O)c2nc3cc(Cl)c4c(c3o2)C2(CCCCC2)NC(=O)N4)CCOCC1` [Example 215, 5-Chloro-N-[4-(methoxymethyl)oxan-4-yl]-7-oxo-7,8-dihydro-6H-spiro[[1,3]oxazolo[5,4-f]quinazoline-9,1′-cyclohexane]-2-carboxamide], the IC50 was in the range of 10 to 100 nM.

Regarding `O=C1Nc2c(Cl)cc3nc(C(=O)NC4CCOCC4F)oc3c2C2(CCCCC2)N1` (stereo not drawn) [Example 216, 5-Chloro-N-(3-fluorooxan-4-yl)-7-oxo-7,8-dihydro-6H-spiro[[1,3]oxazolo[5,4-f]quinazoline-9,1′-cyclohexane]-2-carboxamide], the IC50 was in the range of 100 to 1000 nM.

As for `O=C1Nc2c(Cl)cc3nc(C(=O)NCC(F)(F)CO)oc3c2C2(CCCCC2)N1` [Example 217, 5-Chloro-N-(2,2-difluoro-3-hydroxypropyl)-7-oxo-7,8-dihydro-6H-spiro[[1,3]oxazolo[5,4-f]quinazoline-9,1′-cyclohexane]-2-carboxamide], the IC50 lay within 10 to 100 nM.

Consider `O=C1Nc2c(Cl)cc3nc(C(=O)NC[C@@H]4CCOC4)oc3c2C2(CCCCC2)N1` [Example 218, 5-Chloro-7-oxo-N-[(3S)-oxolan-3-ylmethyl]-7,8-dihydro-6H-spiro[[1,3]oxazolo[5,4-f]quinazoline-9,1′-cyclohexane]-2-carboxamide], for which the IC50 fell in the range of 10 to 100 nM.

As to `O=C1Nc2c(Cl)cc3nc(C(=O)N[C@H]4CCOC4)oc3c2C2(CCCCC2)N1` [Example 219, 5-Chloro-7-oxo-N-[(3S)-oxolan-3-yl]-7,8-dihydro-6H-spiro[[1,3]oxazolo[5,4-f]quinazoline-9,1′-cyclohexane]-2-carboxamide], the IC50 is 10 to 100 nM.

Consider `O=C1Nc2c(Cl)cc3nc(C(=O)N[C@@H]4CCOC4)oc3c2C2(CCCCC2)N1` [Example 220, 5-Chloro-7-oxo-N-[(3R)-oxolan-3-yl]-7,8-dihydro-6H-spiro[[1,3]oxazolo[5,4-f]quinazoline-9,1′-cyclohexane]-2-carboxamide], for which the IC50 fell in the range of 10 to 100 nM.

Turning to `O=C1Nc2c(Cl)cc3nc(C(=O)N4CCN5CCC[C@H]5C4)oc3c2C2(CCC(F)(F)CC2)N1` [Example 221, 2-[(8aS)-Octahydropyrrolo[1,2-a]piperazine-2-carbonyl]-5-chloro-4′,4′-difluoro-7,8-dihydro-6H-spiro[[1,3]oxazolo[5,4-f]quinazoline-9,1′-cyclohexane]-7-one], the IC50 lay within 100 to 1000 nM.

On to `O=C1Nc2c(F)cc3nc(CN4CCC(F)(F)CC4)oc3c2C2(CCCCC2)N1` [Example 222, 2-[(4,4-Difluoropiperidin-1-yl)methyl]-5-fluoro-7,8-dihydro-6H-spiro[[1,3]oxazolo[5,4-f]quinazoline-9,1′-cyclohexane]-7-one], for which the IC50 lay within 100 to 1000 nM.

With `COCCNCc1nc2cc(F)c3c(c2o1)C1(CCCCC1)NC(=O)N3` [Example 223, 5-Fluoro-2-{[(2-methoxyethyl)amino]methyl}-7,8-dihydro-6H-spiro[[1,3]oxazolo[5,4-f]quinazoline-9,1′-cyclohexane]-7-one], the IC50 lay in the range of 100 to 1000 nM.

Take `CN(CC(=O)N(C)C)Cc1nc2cc(F)c3c(c2o1)C1(CCCCC1)NC(=O)N3` [Example 224, 2-({5-Fluoro-7-oxo-7,8-dihydro-6H-spiro[[1,3]oxazolo[5,4-f]quinazoline-9,1′-cyclohexane]-2-ylmethyl}(methyl)amino)-N,N-dimethylacetamide]: the IC50 lay within 10 to 100 nM.

`O=C1Nc2c(Cl)cc3nc(CN[C@H]4CCCOC4)oc3c2C2(CCC(F)(F)CC2)N1` [Example 226, 5-Chloro-4′,4′-difluoro-2-({[(3S)-oxan-3-yl]amino}methyl)-7,8-dihydro-6H-spiro[[1,3]oxazolo[5,4-f]quinazoline-9,1′-cyclohexane]-7-one]: the IC50 was in the range of 100 to 1000 nM.

Consider `O=C1Nc2c(Cl)cc3nc(CNC[C@H]4CCOC4)oc3c2C2(CCC(F)(F)CC2)N1` [Example 227, 5-Chloro-4′,4′-difluoro-2-({[(3R)-oxolan-3-ylmethyl]amino}methyl)-7,8-dihydro-6H-spiro[[1,3]oxazolo[5,4-f]quinazoline-9,1′-cyclohexane]-7-one], for which the IC50 was in the range of 100 to 1000 nM.

`O=C1Nc2c(Cl)cc3nc(CN[C@H]4CCOC4)oc3c2C2(CCC(F)(F)CC2)N1` [Example 228, 5-Chloro-4′,4′-difluoro-2-({[(3S)-oxolan-3-yl]amino}methyl)-7,8-dihydro-6H-spiro[[1,3]oxazolo[5,4-f]quinazoline-9,1′-cyclohexane]-7-one]: the IC50 lay within 100 to 1000 nM.

Take `O=C1Nc2c(Cl)cc3nc(CN[C@@H]4CCCOC4)oc3c2C2(CCC(F)(F)CC2)N1` [Example 229, 5-Chloro-4′,4′-difluoro-2-({[(3R)-oxan-3-yl]amino}methyl)-7,8-dihydro-6H-spiro[[1,3]oxazolo[5,4-f]quinazoline-9,1′-cyclohexane]-7-one]: the IC50 fell in the range of 100 to 1000 nM.

In the case of `CN1CCN(C(=O)c2cc3cc(Cl)c4c(c3o2)C2(CCCCC2)NC(=O)N4)CC1` [Example 230, 5′-Chloro-2′-(4-methylpiperazine-1-carbonyl)-7′,8′-dihydro-6′H-spiro[cyclohexane-1,9′-furo[2,3-f]quinazoline]-7′-one], the IC50 fell in the range of 10 to 100 nM.
